Here are results for 1 compound from patent publication US20070148124A1, “Cellulose and acrylic based polymers and the use thereof for the treatment of infectious diseases” (priority 2004, published 2007).

The subject of this test is cell-to-cell fusion mediated by HIV-1 envelope glycoprotein and CD4. The test can be described thus: microbe, parasite or virus in culture. It counts as cell-based. As to conditions: Human immunodeficiency virus 1.

The structures appear in SMILES notation.

The IC50 is the concentration at which inhibition is half-maximal. Low readings indicate inhibition by little substance, high ones a need for much substance. One may read the IC90 as the concentration at which the effect reaches the 90% level. Compound `c1cc(CN2CCCNCCNCCCNCC2)ccc1CN1CCCNCCNCCCNCC1` [AMD 3100] registered a half-inhibitory concentration (IC50) of 2 nM and a 90% effect concentration (IC90) of 7 nM.
